Screen size: about 310,000 compounds; about 14,000 (4.5%) showed an effect of 50% or more. Effects have a minus sign here. Some of the results follow.

The results in this text go back to PMC4336329 (PLoS ONE, 2015).
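Also: peak tail current of the secondary pulse compared with the same well before compound.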

Chain of human ether-à-go-go-related gene (hERG) potassium channel (Q12809 whole entry, looked up): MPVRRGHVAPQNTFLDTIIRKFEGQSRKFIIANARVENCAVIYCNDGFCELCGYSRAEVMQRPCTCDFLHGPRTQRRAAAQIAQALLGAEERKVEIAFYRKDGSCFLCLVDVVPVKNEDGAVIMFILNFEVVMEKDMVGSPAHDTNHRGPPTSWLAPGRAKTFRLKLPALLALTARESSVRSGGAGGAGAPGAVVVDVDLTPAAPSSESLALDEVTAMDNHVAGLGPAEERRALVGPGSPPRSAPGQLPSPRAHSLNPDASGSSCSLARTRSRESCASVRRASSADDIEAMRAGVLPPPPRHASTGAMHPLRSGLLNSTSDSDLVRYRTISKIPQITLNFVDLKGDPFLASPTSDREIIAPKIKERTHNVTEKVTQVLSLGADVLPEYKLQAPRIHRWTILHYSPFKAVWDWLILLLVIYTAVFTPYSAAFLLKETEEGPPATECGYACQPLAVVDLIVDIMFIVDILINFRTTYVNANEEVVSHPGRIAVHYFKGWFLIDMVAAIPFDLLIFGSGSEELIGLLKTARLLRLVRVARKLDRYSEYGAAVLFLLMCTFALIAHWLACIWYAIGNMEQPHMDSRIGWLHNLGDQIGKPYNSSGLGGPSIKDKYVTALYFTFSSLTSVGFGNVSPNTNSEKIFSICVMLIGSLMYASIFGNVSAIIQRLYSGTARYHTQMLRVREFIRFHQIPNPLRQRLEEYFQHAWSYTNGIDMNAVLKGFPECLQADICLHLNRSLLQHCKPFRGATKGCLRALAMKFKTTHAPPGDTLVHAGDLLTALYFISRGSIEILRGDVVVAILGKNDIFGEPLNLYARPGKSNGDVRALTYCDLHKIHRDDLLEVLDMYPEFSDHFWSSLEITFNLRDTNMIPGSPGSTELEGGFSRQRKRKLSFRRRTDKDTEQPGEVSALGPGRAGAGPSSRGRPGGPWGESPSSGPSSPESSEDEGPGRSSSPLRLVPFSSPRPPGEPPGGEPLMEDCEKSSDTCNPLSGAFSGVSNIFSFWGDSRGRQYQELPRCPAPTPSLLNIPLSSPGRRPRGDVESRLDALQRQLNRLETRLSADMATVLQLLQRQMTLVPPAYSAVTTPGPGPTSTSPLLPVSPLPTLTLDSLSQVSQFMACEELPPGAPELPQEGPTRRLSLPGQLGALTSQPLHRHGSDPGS

This assay concerns the target human ether-à-go-go-related gene (hERG) potassium channel (human, UniProt Q12809). In words: primary screen, population patch clamp on CHO cells stably expressing hERG.
As for `O=S(=O)(Nc1ccc(-c2nc3cccnc3s2)cc1)c1ccccc1F`, the “hERG current change (%, negative = inhibition) at 10uM” value amounted to 18.2%.
With `CC(C)NC(=O)c1ccc(NC(=O)CC2SC(N3CCCCC3)=NC2=O)cc1` (stereo not shown), the “hERG current change (%, negative = inhibition) at 10uM” value came to 9.12%.
With `O=C(CCCl)N(Cc1nc2ccccc2c(=O)[nH]1)Cc1cccs1`, the “hERG current change (%, negative = inhibition) at 10uM” value was -0.438%.
`CC(C)C[C@H]1CN=C(N(C)C)N1CC1CCCCCC1`: the “hERG current change (%, negative = inhibition) at 10uM” value is recorded as -19.7%.
On to `CCCOc1cccc(C2C(C(=O)c3cccs3)=C(O)C(=O)N2CCN2CCOCC2)c1` (stereo not shown), for which the “hERG current change (%, negative = inhibition) at 10uM” value was found to be 29.3%.
For `Cc1cc(/C=C2\SC(=S)NC2=O)cc(C)c1O`, the “hERG current change (%, negative = inhibition) at 10uM” value was found to be 10.8%.
Consider `O=C(COC(=O)c1ccncc1)Nc1cc(S(=O)(=O)N2CCOCC2)ccc1Cl`, for which the “hERG current change (%, negative = inhibition) at 10uM” value is listed as -20.6%.
Turning to `COc1ccc(N(C(=O)c2ccncc2)S(=O)(=O)c2ccc(Cl)cc2)cc1`, the “hERG current change (%, negative = inhibition) at 10uM” value is -26.4%.
The value for `N#Cc1c(-c2cccnc2)cc(-c2ccccc2)nc1N` was -13.6%; that for `CCOC(=O)C1[C@H]2C(=O)N(C(C)c3ccc(OC)cc3)C[C@]23C=C[C@H]1O3` (stereo partly shown) was -20%; that for `O=C(O)c1cc(NC(=S)NC(=O)C(c2ccccc2)c2ccccc2)ccc1Cl` was 3.77%.
For the compound `O=C(Cc1ccccc1)Nc1ccccc1Oc1ccccc1`, the “hERG current change (%, negative = inhibition) at 10uM” value is 0.28%.
On to `CCOc1ccccc1NC(=O)CSc1nc2ccccc2nc1N1CCCC1`, for which the “hERG current change (%, negative = inhibition) at 10uM” value was 10.2%.
For the compound `CCOc1ccc2nc(NCCNC(=O)Nc3cccc(C)c3)c(C#N)cc2c1`, the “hERG current change (%, negative = inhibition) at 10uM” value is on record as 0.537%.
With `COc1ccc(N(CCCN2C(=O)c3cccc4cccc(c34)C2=O)C(=O)c2cccc(OC)c2)cc1`, the “hERG current change (%, negative = inhibition) at 10uM” value turned out to be 20.1%.
With `Cc1cc2cc(C(c3nnnn3Cc3ccccc3)N3CCc4ccccc43)c(=O)[nH]c2cc1C` (stereo not shown), the “hERG current change (%, negative = inhibition) at 10uM” value is -14.7%.
Take `CNC(=S)NNC(=O)c1cn(C)nc1C`: the “hERG current change (%, negative = inhibition) at 10uM” value was 16.5%.
On to `CCCCOC(=O)c1ccc(NC(=S)N2CCN(c3ncc4c(=O)c(C(=O)O)cn(CC)c4n3)CC2)cc1`, for which the “hERG current change (%, negative = inhibition) at 10uM” value worked out at 11.2%.
The value for `O=C(NNC(=S)NCc1ccco1)c1cccs1` was -2.16%; that for `C=CCn1c(=O)c2ccc(C(=O)NCc3ccccc3)cc2n(Cc2ccc(C)cc2)c1=O` was 12.1%.
Take `CC(Sc1n[nH]c(N)n1)c1nc2scc(-c3cccs3)c2c(=O)[nH]1` (stereo not shown): the “hERG current change (%, negative = inhibition) at 10uM” value is listed as 0.709%.
As for `Cc1ccccc1S(=O)(=O)Cc1ccc(C(=O)NCc2ccc(F)cc2)o1`, the “hERG current change (%, negative = inhibition) at 10uM” value was -42%.
With `CS/C(N)=N/N=C/c1c(O)ccc2ccccc12`, the “hERG current change (%, negative = inhibition) at 10uM” value came out at 6.39%.
The value for `CC1(C)CC(CC(=O)Nc2nccs2)(c2ccccc2)CCO1` (stereo not shown) was 4.97%.
As for `Cc1ccnc2nc(C(=O)Nc3nnc(-c4ccc(Cl)cc4)o3)nn12`, the “hERG current change (%, negative = inhibition) at 10uM” value is on record as 4.54%.
With `CCCN(CC(=O)Nc1cc(Cl)cc(Cl)c1)CC(=O)Nc1ccc(F)c(F)c1F`, the “hERG current change (%, negative = inhibition) at 10uM” value is -9.43%.
Turning to `COc1ccc(N2CCN(C(=O)c3cn(Cc4ccccc4)nc3-c3cccnc3)CC2)cc1`, the “hERG current change (%, negative = inhibition) at 10uM” value is listed as -33.3%.
The value for `CCOC(=O)c1c(N)sc(C(N)=O)c1C` was 18.3%; that for `CCOC(=O)c1ccc(NC(=S)N(CCCN2CCCC(C)C2)Cc2ccco2)cc1` (stereo not shown) was -70.9%; that for `CCc1ccc(NC(=S)Nc2cc(OC)c(NC(=O)C(C)C)cc2OC)cc1` was 5.84%.
For the compound `CC(=O)N1N=C(c2ccc(Cl)cc2)OC1c1ccc(C(C)C)cc1` (stereo not shown), the “hERG current change (%, negative = inhibition) at 10uM” value is listed as 6.01%.
Take `COc1ccc(C(C)(C)C)cc1NC(=O)CCCn1c(=O)oc2ccccc21`: the “hERG current change (%, negative = inhibition) at 10uM” value is listed as -21.1%.
Take `CCc1nn2cc(C(=O)c3cc(Cl)ccc3O)cnc2c1-c1ccc(F)cc1`: the “hERG current change (%, negative = inhibition) at 10uM” value is given as 5.34%.
With `COC(=O)C(=Nc1ccccc1)/C(C(=O)C(=O)N(C)c1ccccc1)=C(\O)c1ccc(Cl)cc1`, the “hERG current change (%, negative = inhibition) at 10uM” value came out at 14.2%.
On to `CCN1CCN(C(=O)c2sc3nc(C)nc(N4CCC(C)CC4)c3c2C)CC1`, for which the “hERG current change (%, negative = inhibition) at 10uM” value is -8.16%.
`COc1ccccc1NC(=O)Cc1csc(NC(=S)Nc2ccc(C)cc2)n1`: the “hERG current change (%, negative = inhibition) at 10uM” value stood at 1.94%.
As for `O=C(c1c(Cl)cccc1Cl)N1CCN(c2cccc3[nH]ccc23)CC1`, the “hERG current change (%, negative = inhibition) at 10uM” value is listed as 22.3%.
With `COc1ccc(CNS(=O)(=O)c2ccc(NC(=O)N3CCCCC3)cc2)cc1`, the “hERG current change (%, negative = inhibition) at 10uM” value was found to be 10.7%.
As for `Cc1ccc[n+](CC(=O)N2CCCCC2)c1C.[Br-]`, the “hERG current change (%, negative = inhibition) at 10uM” value turned out to be 6.73%.
With `CCc1cccc(C)c1NC(=O)C1CCN(C(=O)c2ccc([N+](=O)[O-])cc2)CC1`, the “hERG current change (%, negative = inhibition) at 10uM” value is -48.2%.
`COc1ccc(/C=C2\SC(=O)N=C2N)cc1`: the “hERG current change (%, negative = inhibition) at 10uM” value is listed as 12.4%.
Consider `O=c1nc(N/N=C/C=C/c2ccccc2)cn[nH]1`, for which the “hERG current change (%, negative = inhibition) at 10uM” value is 18.8%.
In the case of `COc1ccc2nc(C)cc(SCC(=O)NNC(=O)COc3cccc4ccccc34)c2c1`, the “hERG current change (%, negative = inhibition) at 10uM” value is on record as 8.24%.
The value for `O=C(NCC(c1ccco1)N1CCN(c2ccccc2F)CC1)C1CCCCC1` (stereo not shown) was -2.24%; that for `Cc1sc2ncnc(SCC(=O)N3CCN(C(=O)c4ccco4)CC3)c2c1C` was -70.1%.
As for `O=C(c1cccc(N2C(=O)C3C4C=CC(C4)C3C2=O)c1)N1CCN(c2ccccc2F)CC1` (stereo not shown), the “hERG current change (%, negative = inhibition) at 10uM” value is on record as -15.6%.
Consider `O=C(COC(=O)Cc1ccccc1[N+](=O)[O-])NCC1CCCCC1`, for which the “hERG current change (%, negative = inhibition) at 10uM” value was found to be 0.647%.
Consider `Cc1ccc(OCC(=O)OCC(=O)Nc2sccc2C(N)=O)cc1C`, for which the “hERG current change (%, negative = inhibition) at 10uM” value came to 15%.
Regarding `O/N=C/c1ccc(OCc2ccccc2F)c(Cl)c1`, the “hERG current change (%, negative = inhibition) at 10uM” value is 2.95%.
The value for `COc1cccc(CNC(=O)Cn2cc3c(n2)CCCC3)c1` was 4.5%.
For the compound `Cc1nc(-c2ccncc2)nc(NCCNc2ccc(C(F)(F)F)cn2)c1Cl`, the “hERG current change (%, negative = inhibition) at 10uM” value was 0.868%.
Take `Cc1ccc(OCC(=O)Nc2ccc(F)cc2)cc1`: the “hERG current change (%, negative = inhibition) at 10uM” value turned out to be 10.2%.
As to `CCN(CC)C(=O)C1CCCN(Cc2nc(-c3cnccn3)no2)C1` (stereo not shown), the “hERG current change (%, negative = inhibition) at 10uM” value came to 0.902%.
The value for `COP(=O)(CC(=O)c1ccccc1)CC(=O)c1ccccc1` was 21.8%; that for `C/C(=N\NS(C)(=O)=O)c1ccccc1` was 12.6%.
